Hit rate of the full screen: of about 310,000 compounds, about 14,000 (4.5%) showed an effect of 50% or more. Effects have a minus sign here. The list shows a part of the results.
target: human ether-à-go-go-related gene (hERG) potassium channel (human, UniProt Q12809); assay: primary screen, population patch clamp on CHO cells stably expressing hERG
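Further: peak tail current of the secondary pulse compared with the same well before compound.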

Chain of human ether-à-go-go-related gene (hERG) potassium channel (Q12809 whole entry, looked up): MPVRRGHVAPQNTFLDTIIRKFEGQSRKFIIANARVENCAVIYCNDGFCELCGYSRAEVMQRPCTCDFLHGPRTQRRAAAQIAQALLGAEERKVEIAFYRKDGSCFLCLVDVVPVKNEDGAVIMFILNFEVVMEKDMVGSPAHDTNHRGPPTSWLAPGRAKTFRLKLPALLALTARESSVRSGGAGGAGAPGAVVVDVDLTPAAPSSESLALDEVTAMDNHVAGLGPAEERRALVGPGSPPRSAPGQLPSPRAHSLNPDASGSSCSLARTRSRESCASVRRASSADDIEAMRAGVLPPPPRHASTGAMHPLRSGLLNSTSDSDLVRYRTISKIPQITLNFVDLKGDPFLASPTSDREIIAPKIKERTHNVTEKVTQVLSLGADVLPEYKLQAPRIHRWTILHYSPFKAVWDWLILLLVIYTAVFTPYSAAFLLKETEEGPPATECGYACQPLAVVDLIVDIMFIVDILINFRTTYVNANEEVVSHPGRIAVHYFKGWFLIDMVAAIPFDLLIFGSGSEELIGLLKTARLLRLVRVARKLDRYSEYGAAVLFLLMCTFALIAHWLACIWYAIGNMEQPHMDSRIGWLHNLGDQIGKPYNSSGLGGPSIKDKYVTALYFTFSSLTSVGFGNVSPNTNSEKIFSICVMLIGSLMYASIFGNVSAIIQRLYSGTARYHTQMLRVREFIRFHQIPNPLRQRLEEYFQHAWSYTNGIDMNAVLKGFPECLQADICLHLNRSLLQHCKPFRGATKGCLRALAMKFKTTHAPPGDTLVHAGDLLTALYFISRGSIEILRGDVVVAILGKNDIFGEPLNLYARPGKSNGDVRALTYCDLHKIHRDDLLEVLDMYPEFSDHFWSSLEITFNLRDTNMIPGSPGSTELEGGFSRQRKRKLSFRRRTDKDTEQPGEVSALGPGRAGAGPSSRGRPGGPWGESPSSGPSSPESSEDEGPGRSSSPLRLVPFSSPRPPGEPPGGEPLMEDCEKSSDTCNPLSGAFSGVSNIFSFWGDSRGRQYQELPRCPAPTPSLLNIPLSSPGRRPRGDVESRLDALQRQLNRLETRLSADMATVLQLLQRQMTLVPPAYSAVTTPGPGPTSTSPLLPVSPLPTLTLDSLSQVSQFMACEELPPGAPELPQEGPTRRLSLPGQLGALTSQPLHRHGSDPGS

| Structure (SMILES) | hERG current change (%, negative = inhibition) at 10uM |
| --- | --- |
| COc1ccccc1-n1nc(C(=O)O)c2ccccc2c1=O | 8.83% |
| CC(c1nnc(SCC(=O)N2CC(=O)Nc3ccccc32)n1Cc1ccccc1)N(C)C (centres unmarked) | 5.73% |
| CCNC(=O)NC(=O)CN(C)c1ccccc1 | 10.5% |
| O=C(CCC(=O)Nc1ccccc1Cl)NNC(=O)NC1CCCCC1 | -16.7% |
| CCOC(=O)N1CCN(C(=O)C2CCN(Cc3ccc(O)c(OCC)c3)CC2)CC1.O=C(O)C(=O)O | 20.2% |
| O=C(C[n+]1ccccc1)N/N=C/c1cc(Br)ccc1F.[Cl-] | 0.815% |
| Cc1nc2ccc(NS(=O)(=O)c3ccc(Br)cc3)cc2s1 | 5.95% |
| CCOCCCNS(=O)(=O)c1ccc2c(c1)CCN2C(=O)CC | 5.75% |
| O=C(CC1C(=O)NCCN1Cc1cccc(F)c1)NC1CCC1 (centres unmarked) | -3.12% |
| Cn1c(=O)c2[nH]c(N3CCN(c4ccccn4)CC3)nc2n(C)c1=O | 20.6% |
| CCOc1ccc(N(CC(=O)NCC2CCCO2)S(=O)(=O)c2ccc(OC)c(OC)c2)cc1 (centres unmarked) | 0.188% |
| Nn1c(-c2ccc(F)cc2)nc2ccccc2c1=O | 17.9% |
| CCOc1cc(/C=C2\SC(N3CCCCC3)=NC2=O)ccc1O | 3.1% |
| O=C1Nc2c(c(=O)[nH]c(=O)n2-c2ccc(F)cc2)C1(NS(=O)(=O)c1ccccc1)C(F)(F)F (centres unmarked) | 2.26% |
| CC(=O)Nc1cccc(NC(=O)C2CC3CCC2C3)c1 (centres unmarked) | -3.64% |
| COC(=O)CCSc1nc(N2CCOCC2)c2c(c1C#N)CC(C)(C)OC2 | 7.63% |
| Cc1c(Cl)cccc1NC(=O)c1cc(S(=O)(=O)N2CCOCC2)cn1C | -12.5% |
| COc1ccc(NC(=O)Nc2ccc3nc(C)c(C)nc3c2)cc1 | 14.5% |
| Cn1c(=O)n(CCCOc2ccc(Cl)cc2)c2ccccc21 | -13.7% |
| NS(=O)(=O)c1ccc(CCNS(=O)(=O)c2cccc3nsnc23)cc1 | 14.1% |
| Cc1ccc(S(=O)(=O)N[C@@H](C)C(=O)N2CCC(C(=O)N[C@@H](Cc3ccccc3)C(=O)O)CC2)cc1 | -4.39% |
| Cc1ccc(NC(=O)CCC(=O)OC(C)C(=O)c2ccccc2)cc1 (centres unmarked) | 17.7% |
| CC(NC(=O)c1ccc(Cl)cc1)c1nnc(SCc2ccc([N+](=O)[O-])cc2)n1C (centres unmarked) | -19.4% |

| Structure (SMILES) | hERG current change (%, negative = inhibition) at 10uM |
| --- | --- |
| O=[N+]([O-])c1ccccc1N/N=C/c1ccccc1 | 12.8% |
| Cc1sc(CO)c(Sc2ccccc2)c1C(=O)O | 2.84% |
| CC1CCN(C(=O)c2cccc(NC(=O)c3cccs3)c2)CC1 | -19.9% |
| CC1(C)C(=O)OC(c2cccs2)C2(CCCCC2)C1=O (centres unmarked) | 1.39% |
| Cc1ccccc1C(=O)Nc1ccc(S(=O)(=O)N2CCOCC2)cc1 | 1.55% |
| CC(C)N1CC(C(=O)Nc2ccccc2)CC1=O (centres unmarked) | 11.4% |
| COC(=O)CN1C(=O)COc2ccc(S(=O)(=O)N3CCOCC3)cc21 | 12.6% |
| CCCCOc1ccc(C2C(=O)N(C3CCCCC3)CC(=O)N2CC2CCCO2)cc1 (centres unmarked) | -37.3% |
| COC(=O)c1sc(N2CCN(c3ccc(Cl)cc3)CC2)nc1N | 10.7% |
| COc1ccc(Oc2c(-c3ccc(O)cc3O)n[nH]c2C)cc1 | 10.4% |
| COc1ccc(COC(=O)c2ccc(Br)c(S(=O)(=O)N3CCOCC3)c2)cc1F | -10.4% |
| CCN(CC)CCNC(=O)c1ccc(NC(=O)c2ccc(F)cc2F)cc1.Cl | -36% |
| O=C(O)c1ccc(S(=O)(=O)N2CCC(Cc3ccccc3)CC2)cc1 | 13.2% |
| Cc1ccccc1OCCC(=O)OCC(=O)Nc1ccc(N2CCOCC2)cc1 | -21.3% |
| O=C1CNC(=O)/C(=C\c2ccccc2)N1 | 11.8% |
| CN(Cc1nccs1)C(=O)C1CCC(=O)N(CCc2cccc(F)c2)C1 (centres unmarked) | -12.4% |
| COC(=O)C(=Cc1ccc(-c2ccsc2C(=O)OC)o1)C(=O)OC | 12% |
| CCN1CCN(Cc2c(O)ccc3c(C)cc(=O)oc23)CC1 | 33.1% |
| C=C(C)COc1ccc(-c2n[nH]c(C)c2-c2ccc(Br)cc2)c(O)c1 | -14.5% |
| COc1c(OC(C)=O)ccc(/C=C/c2ccc3ccccc3n2)c1[N+](=O)[O-] | -5.48% |
| CN(Cc1ccc(OC(F)F)cc1)C(=O)c1ccc2nccnc2c1 | -67.8% |
| Cc1c(Cc2ccccc2)c(NCCCO)n2c(nc3ccccc32)c1C#N | -6.81% |
| O=C(Nc1ccc(S(=O)(=O)N2CCCC2)cc1)c1ccc(CN2CCc3ccccc3C2)cc1 | -3.13% |

| Structure (SMILES) | hERG current change (%, negative = inhibition) at 10uM |
| --- | --- |
| O=C(Nc1cccc(C(=O)Nc2ccc(Br)cc2)c1)c1ccccc1 | 8.18% |
| CCCC(=O)NCCc1nc2ccccc2n1CCC | 1.27% |
| O=C(CCN1CCOCC1)NNC(=S)NC(=O)c1ccc(Br)cc1 | 52.7% |
| Cc1c(C(=O)N/N=C/c2ccccc2)[nH]c2ccc(Cl)cc12 | 27.8% |
| CCN(CC)S(=O)(=O)c1ccc(-c2nnc(SC)o2)cc1 | -9.82% |
| CC(OC(=O)c1ccccc1Br)C(=O)Nc1nc(-c2cccc([N+](=O)[O-])c2)cs1 (centres unmarked) | -4.81% |
| COC(C/C=C/[C@@H](O)[C@H](C)OCc1ccccc1)OC | 12.2% |
| COc1ccc(OCC(=O)Nc2c(Cl)ccc3nsnc23)cc1 | -10.8% |
| CCOC(=O)N1CCC(c2nc(C)sc2C(=O)O)CC1 | 20.7% |
| Cc1cc2ncn(CS(C)(=O)=O)c2cc1C | 22.6% |
| O=C(O)c1ccccc1-c1nc2ccccc2n1-c1ccccc1 | 13% |
| O=C(O)C1C(c2ccccc2)C(C(=O)OCCCO)C1c1ccccc1 (centres unmarked) | -1.18% |
| CC(C)Oc1cccc(C(=O)C2CCCN(C(=O)c3noc4c3CCCC4)C2)c1 (centres unmarked) | -44.6% |
| C/C(=N\N1C(=O)c2ccccc2NC1c1ccco1)c1ccccc1O (centres unmarked) | 25.3% |
| O=C(NNS(=O)(=O)c1ccc([N+](=O)[O-])cc1)c1ccc([N+](=O)[O-])cc1 | 28.6% |
| CCOC(=O)C1(CCOc2ccccc2)CCN(Cc2cnc(C)s2)CC1 | -62.4% |
| CC(C)(C)CN1CCNC(=O)C1CC(=O)NCCN1CCCc2ccccc21 (centres unmarked) | 0.68% |
| Cc1ccc(S(=O)(=O)N(C)C)cc1NC(=O)COC(=O)c1ccc(Cl)cc1 | 3.01% |
| O=C(OC(C(=O)Nc1ccc([N+](=O)[O-])cc1Br)c1ccccc1)c1ccccc1 (centres unmarked) | 5.91% |
| O=S(Cc1ccc(Br)cc1)Cc1nnc(SCc2ccc(Cl)cc2)n1-c1ccccc1 (centres unmarked) | -11.6% |
| C[n+]1ccccc1/C=C/c1cc(Br)ccc1O.[I-] | 14.7% |
| Cc1cc(Cl)c2oc(C(=O)NCCC3CCCCO3)c(C)c2c1 (centres unmarked) | 2.57% |
| COc1ccc(N2CC(C(=O)N(C)CC(=O)Nc3ccc(Cl)c(C(F)(F)F)c3)CC2=O)c(OC)c1 (centres unmarked) | -43.4% |

| Structure (SMILES) | hERG current change (%, negative = inhibition) at 10uM |
| --- | --- |
| Cc1ccc(Cn2c(SCC(=O)N/N=C/c3ccc(C)o3)nc3ccccc32)cc1 | -61.1% |
| COc1ccccc1-c1nnc(NC(=O)c2ccc3c(c2)OCO3)s1 | 5.2% |
| CCOCCCn1c(=S)[nH]c2cc(C(=O)NCCOC)ccc2c1=O | 10.7% |
| CC1Oc2ccccc2OC1(O)c1ccc2ccccc2n1 (centres unmarked) | -8.21% |
| O=C(CCc1nc(-c2ccccc2Cl)no1)NCCc1ccccc1 | 7.08% |
| CC1(C(=O)Nc2ccc3ccccc3c2)CC1(Br)Br (centres unmarked) | -4.46% |
| c1ccc(C(c2ccccc2)c2ccn[nH]2)cc1 | 11% |
| CC1CCCCN1C(=O)CSc1nc2cc3c(cc2c(=O)n1Cc1ccc2c(c1)OCO2)OCO3 (centres unmarked) | 1.12% |
| O=Cc1ccc(Oc2nc(Cl)ncc2F)cc1 | 10.4% |
| CCOC(=O)c1cc2sccc2n1CC(=O)N1CCN(C(=O)c2ccco2)CC1 | -48.2% |
| COc1ccc(-c2cn3cc(C)ccc3n2)cc1OC.Cl | -3.44% |
| CCN(CC)CCn1c(=S)[nH]c2ncccc2c1=O | -20.5% |
| CCOC(=O)C(NC(=O)NCc1ccc(OC)cc1)(OCC)C(F)(F)F (centres unmarked) | 15.1% |
| CC1N(O)C(C)(C)C(c2ccccc2)=[N+]1[O-] (centres unmarked) | -2.8% |
| Clc1ccc(-c2cccs2)nn1 | 2.2% |
| CCOc1ccc(CC(=O)N2CCN=C2SC)cc1 | 14.8% |
| Cn1c(N/N=C2\CCCc3ccccc32)nc2c1c(=O)n(Cc1ccccc1)c(=O)n2C | -1.03% |
| CC(C)C1N(C(=O)CN2CCCC2)CCN1S(=O)(=O)c1ccccc1 (centres unmarked) | 11% |
| Cn1c(CS(=O)Cc2c(Cl)cccc2Cl)nnc1SCc1c(Cl)cccc1Cl (centres unmarked) | -45.1% |
| CCn1c(=N)c(S(=O)(=O)c2ccccc2)cc2c(=O)n3ccccc3nc21 | -13.5% |

Source: publication PMC4336329 (PLoS ONE, 2015)
